Data reported in PubChem BioAssay AID1347120 (National Center for Advancing Translational Sciences (NCATS), 2019).
Among all 390,000 compounds or so, about 930 (0.24%) were called active. Inconclusive results, whose numbers are uncertain, are shown with a selection of clear calls. The call rests on the fitted dose curve; in most records, active means well fitted activation curve with a large enough effect; inconclusive means small, poorly fitted or top-dose-only effect; inactive means no such curve, though single readings can be large or run the other way. Where the call is inconclusive, the potency comes from a doubtful curve fit.

test: qHTS for Suppressors of FUS Proteinopathy: Primary screen using FUS-linked yeast assay; further: nearly all actives have a fitted effect of over 55% in size;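 on growth rescue (activation): plate controls were DMSO vehicle for no effect and reference control for full effect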; conditions: S. cerevisiae FUS-expressing, OD600, 24 h; Potency: growth rescue; growth rescue (activation): at 76.6 µM (top of the series)
Method in brief: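 Cultures pregrown in 2.5% raffinose medium are shifted to minimal medium containing 2% galactose to express toxic FUS. Compounds are tested at several concentrations. After 24hr at 30C, growth is quantified at 600 nm absorbance.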
Potency means the concentration at half of the fitted maximal effect; tags describe the fitted curve by direction and shape.

Q: For `COc1cccc(C2C(C(=O)c3ccc(C)o3)=C(O)C(=O)N2c2cc(C)on2)c1` (centres undefined), which Potency is on record?
A: The Potency was inconclusive: 20 µM [activator, partial curve, poor fit].

Q: For `CC(C)C[C@H]1CN([C@@H](CC(C)C)CN2CCCC2CN2C(=S)NC[C@@H]2Cc2ccc(O)cc2)C(=S)N1CCc1ccccc1` (some centres undefined), which Potency is on record?
A: The Potency was inconclusive: 50.1 µM [activator, single point].

Q: With `Cc1cccn2c(=O)nc(SCC(=O)N3N=C(c4cccs4)CC3c3ccc(F)cc3)nc12` (centres undefined) as the compound, how does the Potency read?
A: Its Potency is inconclusive: 14.1 µM [activator, partial curve, poor fit].

Q: With `COc1cc2sc(-c3ccccc3OC)c(-c3ccc(O)cc3)c2cc1OC` as the compound, how does the “growth rescue (activation)” value read?
A: Its value is inactive: 39.3%.

Q: With `Nc1cc(N)nc(SCc2ccccc2)n1` as the compound, how does the “growth rescue (activation)” value read?
A: The value was inactive: 18.7%.

Q: For `COc1ccc(CCC2(C)NC(=O)N(C(C)C(=O)N3c4ccccc4CC3C)C2=O)cc1` (centres undefined), which Potency is on record?
A: The Potency was inconclusive: 22.4 µM [activator, partial curve, poor fit].

Q: Which “growth rescue (activation)” value does the source give for `O=S(=O)(Nc1cccc2ccccc12)N1CCCC1` here?
A: Its value is inactive: 25.7%.

Q: Which Potency does the source give for `COc1ccccc1N1CCN(c2nc(N)c(C#N)c(CC#N)c2C#N)CC1` here?
A: Its Potency is inconclusive: 22.4 µM [activator, partial curve, poor fit].

Q: For `CC1(C)Cc2c(cnn2-c2ccccc2)-c2c1c1ccccc1n2CC(O)CCl` (centres undefined), which Potency is on record?
A: Its Potency is inconclusive: 31.6 µM [activator, single point].

Q: For `CCC(Sc1nc2cc3c(cc2c(=O)n1Cc1ccco1)OCO3)C(=O)Nc1ccccc1OC` (centres undefined), which Potency is on record?
A: The Potency was inconclusive: 5.01 µM [activator, single point].

Q: Which Potency does the source give for `COc1cc(OC)c(C(=O)Nc2ccc(N(C)C)cc2)cc1OC` here?
A: The Potency was inconclusive: 28.2 µM [activator, partial curve, poor fit].

Q: With `COc1ccc(NC(=O)CSc2nc3ccccc3nc2N2CCOCC2)c(OC)c1` as the compound, how does the Potency read?
A: The Potency was inconclusive: 31.6 µM [activator, single point].

Q: Which Potency does the source give for `Cc1ccc(C(=O)NCC(=O)N2CCN(c3ccccc3O)CC2)s1` here?
A: Its Potency is inconclusive: 35.5 µM [activator, single point].

Q: Which Potency does the source give for `COc1cc2sc(-c3ccccc3OC)c(-c3ccc(OCCN4CCCCC4)cc3)c2cc1OC` here?
A: Its Potency is inconclusive: 22.4 µM [activator, partial curve].

Q: With `COc1ccc(NC(=O)C2Cc3c(-c4ccc5c(c4)OCO5)ccnc3O2)cc1` (centres undefined) as the compound, how does the “growth rescue (activation)” value read?
A: The value was inactive: 24.3%.

Q: Which “growth rescue (activation)” value does the source give for `Cc1cccc(C2=NN(c3ccc(Br)cc3)[C@@H](C(=O)N3CCOC3=O)[C@@H]2C)c1` here?
A: Its value is inactive: 38.7%.

Q: For `COc1ccccc1CNS(=O)(=O)c1ccc(Cl)s1`, which “growth rescue (activation)” value is on record?
A: Its value is inactive: 13.6%.

Q: Which Potency does the source give for `COc1ccc(/C=N/N=C2/NC(=O)C(CC(=O)O)S2)cc1OCc1ccc(Cl)cc1Cl` (centres undefined) here?
A: The Potency was inconclusive: 7.94 µM [activator, full curve].

Q: Which Potency does the source give for `N#CCC(=O)Nc1ccc(C(=O)N2CCN(S(=O)(=O)c3ccc4ccccc4c3)CC2)cc1` here?
A: Its Potency is inconclusive: 12.6 µM [activator, partial curve, poor fit].

Q: For `CCOC(=O)C1=C(C)N=C2SC(C(=O)OC)=CC(=O)N2C1c1ccc(F)cc1` (centres undefined), which Potency is on record?
A: Its Potency is inconclusive: 35.5 µM [activator, single point].

Q: For `O=C(NCCC(=O)N(Cc1ccco1)Cc1cccs1)c1ccc(Br)cc1`, which Potency is on record?
A: The Potency was inconclusive: 22.4 µM [activator, single point].

Q: For `CCCS(=O)(=O)c1nc(S(=O)(=O)c2ccc(C)cc2)c(N2CCCCC2)s1`, which Potency is on record?
A: Its Potency is inconclusive: 25.1 µM [activator, partial curve].

Q: For `Cc1ccc2c(c1)c(N=O)c(O)n2Cc1ccc(Cl)cc1`, which “growth rescue (activation)” value is on record?
A: The value was inactive: -3.67%.

Q: With `COc1ccc2c(c1)OC[C@H]1[C@H]2N2C(=O)CN(Cc3ccccc3)C(=O)[C@@]2(C)[C@H]1c1ccccc1` as the compound, how does the Potency read?
A: The Potency was inconclusive: 20 µM [activator, partial curve, poor fit].

Q: Which “growth rescue (activation)” value does the source give for `N#C/C(=N\Nc1ccccc1)C(N)=S` here?
A: The value was inactive: -16.1%.

Q: For `CCOC(=O)c1c(C)[nH]c(C(=O)CSc2nnc(-c3cccs3)n2Cc2ccccc2)c1C`, which Potency is on record?
A: Its Potency is inconclusive: 35.5 µM [activator, partial curve, poor fit].

Q: Which Potency does the source give for `O=C(c1ccc2c(c1)OCO2)[C@@H]1[C@@H]2C(=O)N(C3CCCCC3)C(=O)[C@@H]2C2c3ccccc3C=CN21` (some centres undefined) here?
A: The Potency was inconclusive: 3.98 µM [activator, full curve, poor fit].

Q: Which “growth rescue (activation)” value does the source give for `CC(C)C[C@H]1COc2cc(F)ccc2S(=O)(=O)N1C` here?
A: Its value is inactive: -31.5%.

Q: With `COc1ccc(N(C(=O)c2ccco2)C(C(=O)NC2CCCC2)c2ccc(N(C)C)cc2)cc1` (centres undefined) as the compound, how does the “growth rescue (activation)” value read?
A: The value was inactive: 62.6%.

Q: Which Potency does the source give for `COc1ccc(OC2CCN(S(=O)(=O)c3ccc(OC)c(OC)c3)CC2)cc1` here?
A: Its Potency is inconclusive: 31.6 µM [activator, single point].

Q: For `O=C(O/N=C/c1ccc2c(c1)OCO2)c1ccc([N+](=O)[O-])cc1`, which “growth rescue (activation)” value is on record?
A: The value was inactive: -2.81%.

Q: With `O=C(NCc1ccccc1)c1ccc(=O)oc1` as the compound, how does the “growth rescue (activation)” value read?
A: The value was inactive: 14.1%.

Q: With `Cc1ccc(C(=O)N(CCc2ccccc2)Cc2ccccc2)cc1S(=O)(=O)N1CCOCC1` as the compound, how does the Potency read?
A: Its Potency is inconclusive: 28.2 µM [activator, single point].

Q: Which “growth rescue (activation)” value does the source give for `O=C(NCc1ccccc1)c1cccn1-c1nnc(N2CCCCC2)s1` here?
A: Its value is inactive: 21.1%.

Q: With `CCc1cccc(NC(=O)C2CCN(S(=O)(=O)c3ccc(Br)s3)CC2)c1` as the compound, how does the Potency read?
A: Its Potency is inconclusive: 20 µM [activator, partial curve].

Q: For `CC(C)=CCC/C(C)=C/CNC(=O)C[C@H]1C[C@H](C(=O)N(C(C)C)C(C)C)[C@@]2(C)c3[nH]c4cc(CCC(=O)N(C)C)ccc4c3CCN2C1=O`, which Potency is on record?
A: Its Potency is inconclusive: 17.8 µM [activator, partial curve, poor fit].

Q: Which Potency does the source give for `CCCOc1ccc(OC(=O)Cc2ccc(OC)c(S(=O)(=O)N3CCOCC3)c2)cc1` here?
A: Its Potency is inconclusive: 50.1 µM [activator, single point].

Q: For `COc1ccc(Cc2nc3ccc(C(=O)N(C)Cc4cc(C)[nH]n4)cc3o2)cc1OC`, which “growth rescue (activation)” value is on record?
A: Its value is inactive: 14.5%.

Q: For `O=C(c1cc(-c2ccncc2)nc2ccccc12)N1CCN(c2ncccn2)CC1`, which “growth rescue (activation)” value is on record?
A: The value was inactive: 5.29%.

Q: With `COc1ccc(-c2[nH]ncc2CN(C)CC2CCCCO2)cc1F` (centres undefined) as the compound, how does the Potency read?
A: The Potency was inconclusive: 7.94 µM [activator, full curve, poor fit].

Q: For `CCCNC(=O)c1ccc(N2CCC3(CC2)CC(c2cccc(Br)c2)=NO3)c(NC(=O)c2ccc(Cl)c([N+](=O)[O-])c2)c1`, which Potency is on record?
A: The Potency was inconclusive: 31.6 µM [activator, single point].

Q: For `Cc1cc(C)c(NC(=O)CS(=O)CC(=O)NC2CCCc3ccccc32)c(C)c1` (centres undefined), which Potency is on record?
A: The Potency was inconclusive: 50.1 µM [activator, single point].

Q: Which “growth rescue (activation)” value does the source give for `CC(C)Oc1ccc(/C=N/NC(N)=S)cc1` here?
A: Its value is inactive: -3.87%.

Q: Which “growth rescue (activation)” value does the source give for `Fc1ccc(-c2c[nH]c(=S)n2Cc2ccccc2)cc1` here?
A: Its value is inactive: -34.7%.

Q: Which “growth rescue (activation)” value does the source give for `NC(=O)c1cc(Cc2ccccc2)sc1NC(=O)c1ccco1` here?
A: Its value is inactive: 29.4%.

Q: Which Potency does the source give for `COC(=O)c1ccc(NC(=O)C(C)Sc2nc(=O)cc(N)n2CCc2ccccc2)cc1` (centres undefined) here?
A: Its Potency is inconclusive: 25.1 µM [activator, partial curve, poor fit].

Q: With `CCOC(=O)C1=CCC(c2ccc(Cl)cc2)N(S(=O)(=O)c2ccc(C)cc2)C1` (centres undefined) as the compound, how does the Potency read?
A: Its Potency is inconclusive: 22.4 µM [activator, partial curve, poor fit].

Q: With `COc1ccc(-c2nc(/C=C3\C(C)=Nc4ccccc43)c(O)o2)cc1` as the compound, how does the Potency read?
A: Its Potency is inconclusive: 35.5 µM [activator, partial curve, poor fit].

Q: Which “growth rescue (activation)” value does the source give for `CCn1ncc(Br)c1C(=O)Nc1sc2c(c1C(N)=O)CCC2` here?
A: The value was inactive: 15.7%.

Q: Which “growth rescue (activation)” value does the source give for `CCN(CC)CCCNC(=O)c1cn(CC)c2ccc(S(=O)(=O)N3CCC(C)CC3)cc2c1=O` here?
A: Its value is inactive: -1.67%.

Q: For `COCCNC(=O)CSc1nc2ccc(N3CCOCC3)cc2c(=O)n1Cc1ccc(OC)cc1`, which Potency is on record?
A: The Potency was inconclusive: 25.1 µM [activator, partial curve].

Q: Which Potency does the source give for `CC(C)C[C@@H](CN1CCCC1CN1C(=S)NC[C@@H]1Cc1ccccc1)N1C[C@H](Cc2ccc(O)cc2)N(CCc2ccccc2)C1=S` (some centres undefined) here?
A: Its Potency is inconclusive: 20 µM [activator, partial curve, poor fit].

Q: With `Cc1cc(=O)n(CC(=O)N2CCCCC2)c2c1c(C)nn2C` as the compound, how does the “growth rescue (activation)” value read?
A: The value was inactive: 1.36%.

Q: For `COc1ccc(NC(=O)C(c2ccccc2F)n2c(=O)c(-c3ccco3)nc3ccccc32)cc1` (centres undefined), which Potency is on record?
A: Its Potency is inconclusive: 35.5 µM [activator, single point].

Q: Which Potency does the source give for `CC(C)(C)c1ccc(-c2noc(C(=O)NN)n2)cc1` here?
A: Its Potency is inconclusive: 39.8 µM [activator, single point].

Q: Which “growth rescue (activation)” value does the source give for `O=C(CSc1nnc(-c2cccnc2)n1-c1ccc(Cl)cc1)c1ccc2ccccc2c1` here?
A: Its value is inactive: 23.1%.

Q: Which Potency does the source give for `COc1ccc(C2=NOC(Cn3nc(C(=O)NCc4ccc(C)cc4)cc3-c3ccccc3)C2)cc1` (centres undefined) here?
A: Its Potency is inconclusive: 39.8 µM [activator, single point].

Q: With `COC(=O)[C@H]1[C@H]2C[C@@H]3c4[nH]c5cc(OC)ccc5c4CCN3C[C@H]2C[C@@H](OC(=O)c2ccc(N)cc2)[C@@H]1OC` as the compound, how does the Potency read?
A: The Potency was inconclusive: 35.5 µM [activator, single point].

Q: Which Potency does the source give for `Cc1cccc(C(C)C)c1NC(=O)COC(=O)CCN1C(=O)C2CC=CCC2C1=O` (centres undefined) here?
A: The Potency was inconclusive: 50.1 µM [activator, single point].

Q: With `O=C1NC2(CCC3(CC2)OCCO3)NN1c1ccccc1` as the compound, how does the “growth rescue (activation)” value read?
A: Its value is inactive: -3.18%.

Q: With `CC(C)(C)OC(=O)N1CCC(c2c(C(=O)N3CCCCC3)cnn2-c2ccc(F)cc2)CC1` as the compound, how does the “growth rescue (activation)” value read?
A: Its value is inactive: -16.5%.

Q: For `Cc1ccc(C(=O)C(C)OC(=O)c2cc(=O)[nH]c3ccccc23)cc1` (centres undefined), which Potency is on record?
A: Its Potency is inconclusive: 50.1 µM [activator, single point].

Q: Which Potency does the source give for `CC1CCN(S(=O)(=O)c2ccc(NC(=O)Cc3ccc(S(=O)(=O)N4CCOCC4)s3)cc2)CC1` here?
A: The Potency was inconclusive: 28.2 µM [activator, single point].

Q: Which Potency does the source give for `CCN(CC)C(=O)c1c(NC(=O)c2ccccc2F)sc2c1CCC(C(C)(C)C)C2` (centres undefined) here?
A: Its Potency is inconclusive: 50.1 µM [activator, single point].
